# According to the supplement of paper PMC11417369:
# ± gives the standard deviation of the averaged measurements. Some of the results follow.
# Test system: PfAP2-EXP AP2 domain (GST-tagged)
# Assay: gcPBM binding intensity (ln(normalized median fluorescence intensity)); higher = stronger DNA binding
# Procedure, shortened: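 Using an Agilent 4 × 180k array, primer-extended double-stranded 36-bp intergenic genomic probes and negative controls were exposed for 1 h to GST-fused P. falciparum DNA-binding domains expressed in E. coli. Binding was carried out in 1× PBS with 1% milk, 0.2 mg/ml BSA, 0.5% salmon testes DNA and 0.03% Triton X-100, and protein was detected with Alexa488 anti-GST antibody and a 488 nm scan. Binding intensity is the highest Masliner-normalised natural-log median intensity across replicate spots of either probe orientation.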
row,Sequence,gcPBM binding intensity (ln)
1,TTTCTATATAGATTTGCACACATAAAAATGCTTATA [CACACA_site2390],8.58 ± 0.33
2,CTTTATACATGACATAGTACCCATTTTAGATTTGAA [XGTACX_site5240],8.52 ± 0.38
3,GTCCCTATAAGGGGAACACACATAAATGAATATATA [CACACA_site1024],8.48 ± 0.5
4,TTTTTTTGTTAAAAGGTGCTAATATATATAAGTGCT,8.66 ± 0.17
5,TTATATATTTATATATGTACACATTTTACCATTTTT [XGTACX_site2142],8.59 ± 0.34
6,AAATTTATAAAGAACACACACATATAAATATAAATA [CACACA_site6174],8.93 ± 0.49
7,TTAAAATGTTGTAACGTGCACATTTTGTGGAAATCA [GTGCAC_site9559],8.64 ± 0.3
8,ATTTATTTCTTGTTAGTGCACTTTCTTTGGTAAAAT,9.49 ± 0.014
9,TATACAGATGGACACACACACATATATATATATATA [CACACA_site5272],10.2 ± 0.3
10,TTATAATTGTAAGGTAGTACATATAAATCAAATAAT [XGTACX_site7190],8.74 ± 0.35
11,ATGAATCTTTTAAAAAGTACATGTGAAAAAAATAAA [XGTACX_site49],8.63 ± 0.3
12,ATACAAACAATTATTTGTACATAAAATTTTTTTTTT [XGTACX_site90],8.36 ± 0.23
13,ATATTTATATATTGCACACAAAAAAAAAAAAAAATC [CACACA_site1629],8.59 ± 0.085
14,TATATATATATGTAATGTACATAAATTTTATACCTT [XGTACX_site6991],9.93 ± 0.23
15,AATATAAATAAACACACACACATATATATATATATT [CACACA_site2906],8.72 ± 0.37
16,CAGTAGTATATACTATGTACATATTTATATTATATT [XGTACX_site4964],8.5 ± 0.4
17,TAATAAATAAAAATAGAACACACATATGTTTTTTTT [CACACA_site9185],8.28 ± 0.38
18,AAAAAAAAAAAAAAATGTACATATATATAAATAAAA [XGTACX_site5574],8.51 ± 0.45
19,TATATTCATAATATTACACACGTTCATTTATTTTAA [CACACA_site2031],8.6 ± 0.42
20,TATGGTTTTAAAAAATGTACGCAAGTGCGTTAATTT [XGTACX_site3945],8.57 ± 0.042
21,GAGTGAAATATGCAAACACACACGAGAAAAATGTAT [CACACA_site3196],8.96 ± 0.52
22,TTATATGCATAAAAAGGTACACATATATAAATAAAT [XGTACX_site6894],8.76 ± 0.42

row,Sequence,gcPBM binding intensity (ln)
1,AACAACCAAACGCACACACACAAAAAAAAAAATATA [CACACA_site6326],8.46 ± 0.47
2,TAATAAAATGTACACGCATGCAATAGAATATAAAGT [TGCATGCA_site905],10.3 ± 0.79
3,TTTGTGTAGGTGTGTAGTACATATAACTTATAACAT [XGTACX_site7885],8.87 ± 0.29
4,ACATTTAAAATTTATGCATGTGGTGTTTTGTATATA [TGCATGCA_site534],8.98 ± 0.36
5,TGATACGTATTTATTTCACACACGTTAAAAAAATAA [CACACA_site3914],8.38 ± 0.3
6,TATATATATATATATTGTACGAACCTTTTTTTTTTT [XGTACX_site4169],10.1 ± 0.18
7,TAATTTTTTAAATTTAAACACACATTTTGTATATGT [CACACA_site8479],8.66 ± 0.49
8,CTAACACTAATTTTTTGTACACAATATGTAAATAAA [XGTACX_site6424],8.45 ± 0.33
9,ATTTTTACATAGGAAGCATGCATATTTTAAAAATAA [TGCATGCA_site1046],9.22 ± 0.5
10,CATGTGTTCTATATTTATGTCTAACTTTTTAATTAA [CACACA_negctrl_site904],8.73 ± 0.35
11,TTATTTCTGAATATTTTTTTTTTTTCTTCTTTTTTA [CACACA_negctrl_site815],8.38 ± 0.5
12,TAATGTAATACATATTGTACACATACATATATATTT [XGTACX_site7531],8.47 ± 0.33
13,GGGTATACCAATATAACACACATATATCTATAATAT [CACACA_site6348],8.51 ± 0.4
14,ATATATAATCATCACACATGCAGCCCTGATGAAAAA [TGCATGCA_site687],8.77 ± 0.38
15,AATAATAAATAAAAATGTACACATACATTTCTATCC [XGTACX_site7057],8.2 ± 0.26
16,TATTAAAAGGTTAAAGCATGCATACATATATATGTT [TGCATGCA_site865],9.44 ± 0.32
17,TTTTTGTTACCTATTGTGCACTTCATATAAATTAAA,9.82 ± 0.35
18,TATAAATTTTTATTTACATGCAGTTATTATTTCCAT [TGCATGCA_site41],8.95 ± 0.3
19,ATATATATATATATATGTACATATTTATATTGTAAA [XGTACX_site8878],10 ± 0.4
20,ATATATATATATATATATATTTATATGTGAAAACCC [CACACA_negctrl_site845],10 ± 0.22
21,ATATATATATATATGTGTACTTATATATTTAAAAAA [XGTACX_site1761],10 ± 0.27
22,TTATACCTGATTTAGGTGCTATAAATTTGTGTTTTT,8.43 ± 0.16
